# In paper PMC4336329 (PLoS ONE, 2015):
# Hit rate of the full screen: of about 310,000 compounds, about 14,000 (4.5%) showed an effect of 50% or more. Effects have a minus sign here. This is one part of the list.
# Biological target: human ether-à-go-go-related gene (hERG) potassium channel (human, UniProt Q12809)
# Assay: primary screen, population patch clamp on CHO cells stably expressing hERG
# 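Also: peak tail current of the secondary pulse compared with the same well before compound.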
# Chain of human ether-à-go-go-related gene (hERG) potassium channel (Q12809 whole entry, looked up): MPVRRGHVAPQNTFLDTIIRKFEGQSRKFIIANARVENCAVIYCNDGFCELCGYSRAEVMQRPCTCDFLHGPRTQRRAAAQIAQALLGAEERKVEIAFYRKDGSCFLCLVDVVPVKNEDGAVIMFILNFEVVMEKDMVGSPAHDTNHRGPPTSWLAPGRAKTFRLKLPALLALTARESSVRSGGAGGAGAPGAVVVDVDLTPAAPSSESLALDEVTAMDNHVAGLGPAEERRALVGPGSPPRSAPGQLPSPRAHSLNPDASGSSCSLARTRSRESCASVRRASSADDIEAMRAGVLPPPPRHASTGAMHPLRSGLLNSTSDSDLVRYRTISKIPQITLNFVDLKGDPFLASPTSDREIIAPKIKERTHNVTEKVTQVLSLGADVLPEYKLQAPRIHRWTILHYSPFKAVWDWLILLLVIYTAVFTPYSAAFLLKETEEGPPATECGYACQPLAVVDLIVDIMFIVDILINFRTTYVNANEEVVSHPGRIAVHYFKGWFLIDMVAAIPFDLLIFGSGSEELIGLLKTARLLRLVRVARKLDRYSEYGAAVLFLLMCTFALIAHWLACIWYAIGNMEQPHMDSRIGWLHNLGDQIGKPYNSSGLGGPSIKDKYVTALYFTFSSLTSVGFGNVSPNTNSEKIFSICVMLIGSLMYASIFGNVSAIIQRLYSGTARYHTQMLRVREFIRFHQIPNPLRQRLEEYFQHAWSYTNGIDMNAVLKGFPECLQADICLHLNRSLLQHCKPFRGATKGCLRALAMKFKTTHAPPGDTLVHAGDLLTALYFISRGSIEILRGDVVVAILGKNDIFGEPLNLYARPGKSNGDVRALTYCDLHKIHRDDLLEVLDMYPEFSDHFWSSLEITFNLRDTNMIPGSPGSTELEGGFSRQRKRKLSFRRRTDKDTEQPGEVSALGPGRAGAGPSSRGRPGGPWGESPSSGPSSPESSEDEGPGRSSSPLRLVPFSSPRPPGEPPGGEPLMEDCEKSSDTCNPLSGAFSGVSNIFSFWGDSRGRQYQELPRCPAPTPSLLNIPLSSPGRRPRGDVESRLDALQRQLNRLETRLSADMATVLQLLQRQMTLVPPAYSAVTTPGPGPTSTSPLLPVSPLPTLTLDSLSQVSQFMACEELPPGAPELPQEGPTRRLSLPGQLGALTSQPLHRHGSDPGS
row,Compound,"hERG current change (%, negative = inhibition) at 10uM [%]"
1,CC(=O)Nc1ccc(OCC(O)Cn2c3ccccc3c3ccccc32)cc1 (stereo not drawn),8.78
2,CC(C)C(C)NC(=O)CSc1nc2scc(-c3ccco3)c2c(=O)n1-c1ccccc1 (stereo not drawn),3.12
3,CSc1ccc(CN2CCN(C(=O)COc3cccc(C)c3)CC2)cc1,-50.3
4,O=C(COC(=O)/C=C/C(=O)OCC(=O)Nc1ccccc1F)Nc1ccccc1F,12.9
5,O=C(Nc1ccc(Cl)c(Cl)c1)c1cccnc1,-2.86
6,COc1ccc(CCNC(=O)C2CC2)cc1OC,-18.3
7,CC(=O)c1cccc(NC(=O)NC2CCCCC2)c1,-11.3
8,O=C(CN1C(=O)S/C(=C/c2ccccn2)C1=O)N1CCOCC1,16.1
9,Cn1c2ccccc2c(=O)c2c(=O)n(-c3ccc(F)cc3)c(-c3cccs3)nc21,1.35
10,C=CCNC(=O)c1ccccc1Cl,14.5
11,O=C(NCC1OCCCN1S(=O)(=O)c1cc(F)ccc1F)C(=O)NC1CCCCCC1 (stereo not drawn),4.74
12,COc1ccc(Cl)cc1C(=O)n1nc(C)cc1C,2.79
13,Cc1cc(NC(=O)CN(C)C)c([N+](=O)[O-])cc1C,6.66
14,COc1ccccc1C(=O)Nc1cccc(N(C)S(C)(=O)=O)c1,25
15,C/C(=N/NC(=O)c1cc(-c2ccccc2)nc2c(Cl)cccc12)c1cccnc1,26.1
16,Nc1nc(N)c(N=O)c(OCC2CCCCC2)n1,11.4
17,O=C1CC(Sc2ccc(Cl)cc2)C(=O)N1Cc1ccncc1 (stereo not drawn),-19.6
18,N#Cc1c(NC(=S)NC(=O)c2ccccc2)sc2c1CCC2,7.07
19,COc1cccc(OCCNc2cc(N3CCCCC3)ccc2[N+](=O)[O-])c1,18.5
20,COCc1cc(N2CCN(c3ccccc3F)CC2)nc(-c2ccccc2)n1,8.03
21,COC(=O)c1ccc(/C=N/Nc2nc(N3CCCCC3)nc(N3CCCCC3)n2)cc1,3.51
22,COc1ccc(C2=Nn3c(nnc3C3CCCCC3)SC2)cc1OC,-16.2
23,Cc1ccc(OCCOCCNC(C)C)c(Br)c1.O=C(O)C(=O)O,-18.3

row,Compound,"hERG current change (%, negative = inhibition) at 10uM [%]"
1,C=CCNC(=O)c1onc(CSc2ccc(C)c(C)c2)c1C(=O)O,12.3
2,COc1ccc2c(c1)c1nnc(SCC(=O)NC3CC3)nc1n2C,-6.02
3,CN1C(=O)/C(=C/c2ccc(OCc3ccc(F)cc3)cc2)NC1=S,23.6
4,COC(=O)c1ccc(NC(=S)NN2CCOCC2)cc1,-2.64
5,N#Cc1c(-c2ccccc2)cc2nc3ccccc3n2c1N,10.6
6,CC(=O)c1ccc(NC(=O)C2CCCN(S(=O)(=O)c3c(C)[nH]c(=O)[nH]c3=O)C2)cc1 (stereo not drawn),12.3
7,CCOC(=O)c1ccc(NC(=O)CCOc2ccc(C)cc2)cc1,10.4
8,Cc1ccc(-c2c(C(=O)N/N=C/c3ccc4c(c3)OCO4)nnn2-c2nonc2N)cc1,25.3
9,COC(=O)c1cc(NC(=O)c2ccc([N+](=O)[O-])cc2)c(=O)oc1C,9.29
10,COc1ccc(/C(C)=N/Nc2nc3ccccc3nc2C)cc1OC,-13.5
11,C=CCC(CC(O)COCCC)C(=O)NNC(=S)Nc1ccccc1 (stereo not drawn),11.4
12,COc1cc(/C=N/NC(=O)c2ccncc2)ccc1O,9.86
13,C=C(C)COc1ccc(-c2nc(N)nc(C(F)(F)F)c2-c2ccc(OC)cc2)c(O)c1,21.9
14,O=C(c1cccc(Cl)c1)N1CCC(C(=O)N2CCN(Cc3ccccc3)CC2)CC1,-56.2
15,Cc1cc(OCC(=O)NCC(c2cccs2)N2CCOCC2)ccc1C(C)C (stereo not drawn),-48.8
16,CCc1ccccc1NC(=O)CCC(=O)Nc1nnc(C(C)C)s1,23.4
17,COc1ccc(-c2noc(N3CCC(C(=O)Nc4ccccc4OC)CC3)n2)cc1,-12
18,CCN1C(=O)C(CC(=O)Nc2ccc(F)cc2)N(Cc2ccco2)C1=S (stereo not drawn),-24.2
19,CCOc1ccc2[nH]c(=O)c(CN(CCc3ccccc3)C(=O)N3CCCC3)cc2c1,-10.1
20,O=C(Nc1ccc(Br)cc1)C1Cc2ccccc2O/C1=N\O (stereo not drawn),11.9
21,O=C(NCc1ccc(F)cc1)C1CCN(C(=O)NCc2ccccc2)CC1,6.31
22,COCCSc1nnc(NC(=O)COc2ccc3c(c2)OCO3)s1,13
